Test results reported in PubChem BioAssay (Tox21).
The shares of active, inactive and inconclusive entries below differ from those in the screen. For some of these results: Where the call is inconclusive, the potency comes from a doubtful curve fit. Activity calls are given as the source filed them. Unless noted, calls come from the whole dose curve; as a rule, active = well fitted curve in the direction sought with a large enough effect in the repeat runs; inconclusive = weak or mixed curves; inactive = no such curve, though single readings can be large; an effect the other way counts as inactive or inconclusive.

Legend:
[1] = qHTS assay for identifying genotoxic compounds that show differential cytotoxicity against isogenic chicken DT40 cell lines with known DNA damage response pathways - wild type cell line (AID 743012); details: DT40 wild type chicken cells viability, CellTiter-Glo, 40 h; activity change, negative = cytotoxicity: at 68.4 µM (top of the series) unless noted; note: nearly all actives have a fitted effect of over 60% in size; note: potency is the fitted concentration of half-maximal effect
How it was run: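 CellTiter-Glo luminescence readout of viability in wild type DT40 cells after 40 h compound exposure at 37 C/5% CO2; 300 cells/well; reagent incubated 30 min at room temperature before reading.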

[2] = qHTS assay for identifying genotoxic compounds that show differential cytotoxicity against isogenic chicken DT40 cell lines with known DNA damage response pathways - Rev3 mutant cell line (AID 743014); details: chicken DT40 Rev3-/- viability, CellTiter-Glo, 40 h; activity, negative = cytotoxicity: at 68.4 µM (top of the series) unless noted; note: nearly all actives have a fitted effect of over 55% in size; note: potency is the fitted concentration of half-maximal effect
[3] = target: Estrogen receptor (Homo sapiens) (UniProt P03372); experiment: qHTS assay to identify small molecule agonists of the estrogen receptor alpha (ER-alpha) signaling pathway using the BG1 cell line (AID 743079); details: BG1Luc4E2 cells, ERE-luciferase agonist, 22 h; activation: at 70.3 µM (top of the series) unless noted; note: nearly all actives have a fitted effect of over 20% in size; note: potency is the fitted concentration of half-maximal effect
[4] = target: Peroxisome proliferator-activated receptor gamma (Homo sapiens) (UniProt P37231); experiment: qHTS assay to identify small molecule antagonists of the peroxisome proliferator-activated receptor gamma (PPARg) signaling pathway (AID 743191; calls by dose curve; note: % is set by controls: 0 for no effect and ±100 for the full control effect; nearly all actives have a fitted effect of over 30% in size); details: HEK293H PPARg-UAS-bla, beta-lactamase ratio, antagonist, 17 h; ratio activity, negative = inhibition: at 62.6 µM (top of the series) unless noted
How it was run: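 GeneBLAzer PPARg UAS-bla HEK293H cells, 5 h post-plating, exposed to compounds 17 h at 37C. LiveBLAzer B/G FRET substrate added for 1 h at room temperature; beta-lactamase reporter read by fluorescence intensity.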

[5] = qHTS assay for small molecule agonists of the antioxidant response element (ARE) signaling pathway (AID 743202; active = well fitted activation curve with a large enough effect in the signal ratio in the repeat runs, not every such curve was filed as active; inconclusive = weak or mixed curves, or effect the other way; inactive = no such curve, though single readings can be large or run the other way; the % refers to the signal ratio; note: potency is the fitted concentration of half-maximal effect); details: HepG2 ARE-bla reporter, beta-lactamase FRET, 16 h; activation: at 73.3 µM (top of the series) unless noted
How it was run: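 HepG2 ARE-bla reporter line, 2,000 cells/well; 5 h preincubation 37 C/5% CO2; compound (DMSO) 16 h 37 C; B/G FRET substrate 2 h RT; fluorescence intensity.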

[6] = target: Retinoic acid receptor RXR-alpha (Homo sapiens) (UniProt P19793); experiment: qHTS assay to identify small molecule agonists of the RXR signaling pathway (AID 1159527; calls by dose curve; note: nearly all actives have a fitted effect of over 35% in size; note: potency is the fitted concentration of half-maximal effect); details: HEK293T RXRa-UAS-bla, beta-lactamase ratio, 16 h; activation: at 76.8 µM (top of the series) unless noted
How it was run: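 Agonist mode; 9-cis retinoic acid positive control. HEK 293T UAS-bla reporter cells, 2% charcoal-stripped FBS, 16 hr compound exposure at 37 C/5% CO2. LiveBLAzer B/G FRET substrate 2 hr RT; ex 405, em 460/530 nm.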

[7] = target: Thyrotropin receptor (Homo sapiens) (UniProt P16473); experiment: qHTS assay to identify small molecule agonists of the thyroid stimulating hormone receptor (TSHR) signaling pathway (AID 1224843; calls by dose curve; note: nearly all actives have a fitted effect of over 45% in size; note: potency is the fitted concentration of half-maximal effect); details: TSHR-HEK293 cells, cAMP HTRF, agonist mode, 30 min; activation: at 92.4 µM (top of the series) unless noted
How it was run: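 HEK293/TSHR, 800 cells/well; cpd 30 min RT; add cAMP-d2 + anti-cAMP-cryptate, 1 h RT; fluorescence read on plate reader. 15-pt titration, n=3.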

[8] = target: Progesterone receptor (Homo sapiens) (UniProt P06401); experiment: qHTS assay to identify small molecule antagonists of the progesterone receptor (PR) signaling pathway (AID 1346795; active = well fitted inhibition curve with a large enough effect in the signal ratio in the repeat runs, not every such curve was filed as active; inconclusive = weak or mixed curves; the % refers to the signal ratio; note: % is set by controls: 0 for no effect and ±100 for the full control effect); details: PR-UAS-bla HEK293T, beta-lactamase FRET ratio, 16 h; activity change, negative = inhibition: at 92.4 µM (top of the series) unless noted
How it was run: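 Beta-lactamase reporter, HEK293T PR-UAS-bla line; 2% charcoal-stripped FBS; 6 hr pre-incubation, 37C/5% CO2. Compound + R5020 1 nM final, 16 hr. LiveBLAzer B/G FRET substrate, 2 hr RT; fluorescence intensity read.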

[9] = target: Cytochrome P450 1A2 (Homo sapiens) (UniProt P05177); experiment: Cytochrome P450 Family 1 Subfamily A Member 2 (CYP1A2) small molecule antagonists: luciferase reporter qHTS assay (AID 1671199); note: nearly all actives have a fitted effect of over 50% in size; note: potency is the fitted concentration of half-maximal effect
How it was run: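 Luminescence readout (relative luminescence units) after luciferin detection reagent, 20 min RT. Preceded by 1 h room-temperature CYP1A2 reaction with NADPH regeneration solution following 10 min compound preincubation with enzyme and proluciferin substrate. Furafylline positive control.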

[10] = qHTS assay for small molecule agonists of the p53 signaling pathway (AID 651631; calls by dose curve; note: nearly all actives have a fitted effect of over 15% in size; note: potency is the fitted concentration of half-maximal effect); details: HCT-116 p53RE-bla reporter, beta-lactamase FRET ratio, 16 h; activation: at 73.3 µM (top of the series) unless noted
How it was run: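 p53RE-bla HCT-116 cells; compounds 16 h, 37 °C; LiveBLAzer B/G FRET substrate 2 h RT; fluorescence intensity read-out, qHTS format.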

[11] = target: Glucocorticoid receptor (Homo sapiens) (UniProt P04150); experiment: qHTS assay to identify small molecule antagonists of the glucocorticoid receptor (GR) signaling pathway (AID 720692; active = well fitted inhibition curve with a large enough effect in the signal ratio in the repeat runs, not every such curve was filed as active; inconclusive = weak or mixed curves, or effect the other way; inactive = no such curve, though single readings can be large or run the other way; the % refers to the signal ratio; note: % is set by controls: 0 for no effect and ±100 for the full control effect); details: GR-bla HeLa, beta-lactamase FRET ratio, dexamethasone-stimulated, 18 h; activity change, negative = inhibition: at 58.5 µM (top of the series) unless noted
How it was run: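 Read-out: beta-lactamase FRET substrate fluorescence, 2 h at room temperature, in HeLa cells stably carrying a GRE-driven bla reporter. Compounds were co-incubated with 5 nM dexamethasone agonist (final) for 18 h at 37 C.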

[12] = target: Peroxisome proliferator-activated receptor delta (Homo sapiens) (UniProt Q03181); experiment: qHTS assay to identify small molecule antagonists of the peroxisome proliferator-activated receptor delta (PPARd) signaling pathway (AID 743215; active = well fitted inhibition curve with a large enough effect in the signal ratio in the repeat runs, not every such curve was filed as active; inconclusive = weak or mixed curves, or effect the other way; inactive = no such curve, though single readings can be large or run the other way; the % refers to the signal ratio;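 note: cells stimulated with agonist L165041 at 300 nM final during compound exposure; % is set by controls: 0 for no effect and ±100 for the full control effect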); details: HEK293H PPARd-UAS-bla, beta-lactamase FRET ratio, antagonist, 17 h; ratio activity, negative = inhibition: at 62 µM (top of the series) unless noted
How it was run: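 HEK293H GeneBLAzer PPARd UAS-bla reporter cells; cpd + L165041 300 nM final, 17 h 37 C; LiveBLAzer B/G FRET substrate 2 h RT; fluorescence intensity read-out. Antagonist mode.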

[13] = target: Vitamin D3 receptor (Homo sapiens) (UniProt P11473); experiment: qHTS assay to identify small molecule antagonists of the vitamin D receptor (VDR) signaling pathway (AID 743223; active = well fitted inhibition curve with a large enough effect in the signal ratio in the repeat runs, not every such curve was filed as active; inconclusive = weak or mixed curves, or effect the other way; inactive = no such curve, though single readings can be large or run the other way; the % refers to the signal ratio; note: % is set by controls: 0 for no effect and ±100 for the full control effect); details: VDR-UAS-bla HEK293T, beta-lactamase FRET ratio, 16 h; activity change, negative = inhibition: at 61 µM (top of the series) unless noted
How it was run: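 Beta-lactamase reporter read-out: FRET substrate fluorescence after 2 h at room temperature, following 16 h exposure of VDR-bla cells to test compound plus 3 nM (final) 1alpha,25-dihydroxyvitamin D3 agonist at 37C.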

[14] = qHTS assay for small molecule disruptors of the mitochondrial membrane potential (AID 720635); details: HepG2 mitochondrial membrane potential, Mito-MPS dye ratio; ratio activity, negative = MMP loss: at 83.2 µM (top of the series) unless noted; note: potency is the fitted concentration of half-maximal effect
How it was run: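 HepG2 cells exposed to compound 1 hr at 37C, then Mito-MPS dye 30 min. Ratio read of aggregate (540/590 nm) versus monomer (490/535 nm) fluorescence.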

[15] = qHTS assay to identify small molecule agonists of the farnesoid-X-receptor (FXR) signaling pathway - cell viability counter screen (AID 743218); details: FXR-bla HEK293T viability, CellTiter-Glo luminescence, 16 h; viability change, negative = cytotoxic: at 62.6 µM (top of the series) unless noted; note: potency is the fitted concentration of half-maximal effect; nearly all actives have a fitted effect of over 45% in size
How it was run: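 Luminescence from CellTiter-Glo, read after 30 min at RT, reports viability of GeneBLAzer FXR-UAS-bla HEK 293T cells treated 16 h with compounds in the wells used for the beta-lactamase reporter.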

[16] = qHTS assay to identify small molecule agonists of the progesterone receptor (PR) signaling pathway - cell viability counter screen (AID 1346799; calls by dose curve; note: nearly all actives have a fitted effect of over 45% in size; note: potency is the fitted concentration of half-maximal effect)
How it was run: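 HEK293T PR-UAS-bla, 3,000 cells/well, 2% charcoal-stripped FBS; 6 h settle, compound 16 h at 37C/5% CO2; LiveBLAzer 2 h RT, then CellTiter-Glo 30 min RT, luminescence read.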

[17] = qHTS assay to identify small molecule antagonists of the thyroid receptor (TR) signaling pathway - cell viability counter screen (AID 743064); details: GH3.TRE-Luc viability, CellTiter-Fluor, 24 h; activity change, negative = cytotoxic: at 70.3 µM (top of the series) unless noted; note: nearly all actives have a fitted effect of over 50% in size; note: potency is the fitted concentration of half-maximal effect
How it was run: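 GH3.TRE-Luc cells, 4 h pre-plating; cpd + T3 1 nM final; 37 °C 23.5 h; CellTiter-Fluor 30 min; fluorescence read.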

[18] = target: Cytochrome P450 2C19 (Homo sapiens) (UniProt P33261); experiment: Cytochrome P450 Family 2 Subfamily C Member 19 (CYP2C19) small molecule antagonists: luciferase reporter qHTS assay (AID 1671197); note: potency is the fitted concentration of half-maximal effect; nearly all actives have a fitted effect of over 65% in size
How it was run: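 P450-Glo CYP2C19 system: enzyme-substrate mix with compound 10 min at room temperature, then NADPH regeneration solution, 1 h at 37C. Proluciferin-to-luciferin conversion detected by luminescence after 20 min with detection reagent; ketoconazole as positive control.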

[19] = target: Cytochrome P450 2C9 (Homo sapiens) (UniProt P11712); experiment: Cytochrome P450 Family 2 Subfamily C Member 9 (CYP2C9) small molecule antagonists: luciferase reporter qHTS assay (AID 1671198); note: potency is the fitted concentration of half-maximal effect; nearly all actives have a fitted effect of over 50% in size
How it was run: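 P450-Glo proluciferin substrate with CYP2C9 enzyme; 10 min RT preincubation, then NADPH regeneration 1 h at 37C; luciferin detection reagent 20 min RT, luminescence in relative luminescence units.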

[20] = target: Estrogen receptor beta (Homo sapiens) (UniProt Q92731); experiment: qHTS assay to identify small molecule antagonists of the estrogen receptor beta (ER-beta) signaling pathway (AID 1259378; active = well fitted inhibition curve with a large enough effect in the signal ratio in the repeat runs, not every such curve was filed as active; inconclusive = weak or mixed curves, or effect the other way; inactive = no such curve, though single readings can be large or run the other way; the % refers to the signal ratio; note: % is set by controls: 0 for no effect and ±100 for the full control effect); details: ER-beta-UAS-bla HEK293T, beta-lactamase FRET ratio, 16 h; activity, negative = inhibition: at 92.4 µM (top of the series) unless noted
How it was run: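 ER-beta-UAS-bla HEK293T cells in 2% charcoal-stripped FBS medium treated with compound plus 1nM final 17-beta-estradiol for 16 hr at 37C. Beta-lactamase reporter read by FRET substrate fluorescence after 2 hours at room temperature.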
Tags give direction and shape of the fitted curve or compound fluorescence and quenching.

Chain of UniProt P37231 (P37231 whole entry, looked up): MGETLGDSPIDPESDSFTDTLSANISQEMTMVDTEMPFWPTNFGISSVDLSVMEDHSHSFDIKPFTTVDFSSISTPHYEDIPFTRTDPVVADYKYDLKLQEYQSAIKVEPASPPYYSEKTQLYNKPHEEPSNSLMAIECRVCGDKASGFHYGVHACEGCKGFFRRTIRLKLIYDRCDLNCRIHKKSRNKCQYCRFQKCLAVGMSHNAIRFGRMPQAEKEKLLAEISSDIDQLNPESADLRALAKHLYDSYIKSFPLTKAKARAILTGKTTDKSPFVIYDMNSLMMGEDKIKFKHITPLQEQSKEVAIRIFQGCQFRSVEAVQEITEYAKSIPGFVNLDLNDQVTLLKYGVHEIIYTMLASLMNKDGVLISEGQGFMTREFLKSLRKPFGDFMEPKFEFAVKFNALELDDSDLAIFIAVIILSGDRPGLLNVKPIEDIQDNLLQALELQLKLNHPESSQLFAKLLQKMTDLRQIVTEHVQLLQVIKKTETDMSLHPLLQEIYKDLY
Chain of UniProt Q03181 (Q03181 whole entry, looked up): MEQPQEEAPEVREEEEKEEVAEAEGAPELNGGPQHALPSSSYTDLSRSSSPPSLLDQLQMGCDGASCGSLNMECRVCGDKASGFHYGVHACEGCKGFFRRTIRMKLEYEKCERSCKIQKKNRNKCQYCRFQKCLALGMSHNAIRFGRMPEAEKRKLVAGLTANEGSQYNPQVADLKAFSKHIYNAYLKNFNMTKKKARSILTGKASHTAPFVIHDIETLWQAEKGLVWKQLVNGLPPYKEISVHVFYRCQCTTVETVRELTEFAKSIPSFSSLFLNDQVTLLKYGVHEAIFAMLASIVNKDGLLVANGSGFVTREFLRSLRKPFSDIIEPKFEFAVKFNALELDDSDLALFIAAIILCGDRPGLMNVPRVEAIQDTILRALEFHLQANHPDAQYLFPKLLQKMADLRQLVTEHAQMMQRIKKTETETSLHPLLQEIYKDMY
Chain of UniProt P11473 (P11473 whole entry, looked up): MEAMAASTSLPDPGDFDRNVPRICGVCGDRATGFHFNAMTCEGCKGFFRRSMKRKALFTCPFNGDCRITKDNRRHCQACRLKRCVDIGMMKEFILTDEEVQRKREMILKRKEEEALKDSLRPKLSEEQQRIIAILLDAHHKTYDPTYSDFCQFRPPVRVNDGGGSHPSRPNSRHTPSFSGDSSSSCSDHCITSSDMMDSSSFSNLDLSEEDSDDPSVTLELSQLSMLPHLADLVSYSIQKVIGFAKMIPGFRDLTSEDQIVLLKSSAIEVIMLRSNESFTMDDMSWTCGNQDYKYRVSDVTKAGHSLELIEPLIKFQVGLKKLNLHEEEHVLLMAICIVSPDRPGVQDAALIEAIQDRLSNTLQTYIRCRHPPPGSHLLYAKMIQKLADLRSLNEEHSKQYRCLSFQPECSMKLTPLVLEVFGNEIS
Chain of UniProt P19793 (P19793 whole entry, looked up): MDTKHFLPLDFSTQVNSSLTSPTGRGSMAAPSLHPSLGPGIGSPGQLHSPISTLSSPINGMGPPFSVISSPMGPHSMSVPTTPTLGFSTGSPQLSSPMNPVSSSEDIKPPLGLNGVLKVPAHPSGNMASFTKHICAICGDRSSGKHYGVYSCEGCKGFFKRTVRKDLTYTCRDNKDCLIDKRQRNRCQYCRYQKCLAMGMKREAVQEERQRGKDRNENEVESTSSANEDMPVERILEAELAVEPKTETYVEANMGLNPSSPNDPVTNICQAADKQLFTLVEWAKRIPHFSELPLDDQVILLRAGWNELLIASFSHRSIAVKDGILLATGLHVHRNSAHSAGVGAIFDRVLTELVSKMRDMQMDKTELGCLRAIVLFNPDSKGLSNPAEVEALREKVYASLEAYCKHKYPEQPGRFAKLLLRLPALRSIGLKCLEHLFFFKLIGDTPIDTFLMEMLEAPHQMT
Chain of UniProt P06401 (P06401 whole entry, looked up): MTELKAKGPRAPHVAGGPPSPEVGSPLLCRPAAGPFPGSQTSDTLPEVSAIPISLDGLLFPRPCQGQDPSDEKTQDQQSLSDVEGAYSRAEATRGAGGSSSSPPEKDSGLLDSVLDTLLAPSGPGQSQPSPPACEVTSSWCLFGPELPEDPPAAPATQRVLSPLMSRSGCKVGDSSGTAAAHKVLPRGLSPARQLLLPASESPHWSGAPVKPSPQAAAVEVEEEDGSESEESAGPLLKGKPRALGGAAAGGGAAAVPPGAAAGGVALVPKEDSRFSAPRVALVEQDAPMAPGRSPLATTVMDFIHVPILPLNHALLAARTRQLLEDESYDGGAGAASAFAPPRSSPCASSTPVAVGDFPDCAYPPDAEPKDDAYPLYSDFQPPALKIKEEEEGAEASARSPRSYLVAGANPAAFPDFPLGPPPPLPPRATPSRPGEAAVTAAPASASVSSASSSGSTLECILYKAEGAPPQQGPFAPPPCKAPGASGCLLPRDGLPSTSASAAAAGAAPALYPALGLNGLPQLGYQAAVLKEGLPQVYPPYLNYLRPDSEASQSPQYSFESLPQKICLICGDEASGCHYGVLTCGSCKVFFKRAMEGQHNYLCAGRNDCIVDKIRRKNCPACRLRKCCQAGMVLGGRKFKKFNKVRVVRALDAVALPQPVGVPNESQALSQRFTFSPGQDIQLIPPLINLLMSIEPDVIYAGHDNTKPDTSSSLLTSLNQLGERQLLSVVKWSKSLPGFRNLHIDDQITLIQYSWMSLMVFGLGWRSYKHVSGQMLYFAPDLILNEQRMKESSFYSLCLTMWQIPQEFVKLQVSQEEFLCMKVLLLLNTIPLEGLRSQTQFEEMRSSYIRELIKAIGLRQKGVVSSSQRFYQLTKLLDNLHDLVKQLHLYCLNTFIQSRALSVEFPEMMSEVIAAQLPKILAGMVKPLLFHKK
Chain of UniProt P04150 (P04150 whole entry, looked up): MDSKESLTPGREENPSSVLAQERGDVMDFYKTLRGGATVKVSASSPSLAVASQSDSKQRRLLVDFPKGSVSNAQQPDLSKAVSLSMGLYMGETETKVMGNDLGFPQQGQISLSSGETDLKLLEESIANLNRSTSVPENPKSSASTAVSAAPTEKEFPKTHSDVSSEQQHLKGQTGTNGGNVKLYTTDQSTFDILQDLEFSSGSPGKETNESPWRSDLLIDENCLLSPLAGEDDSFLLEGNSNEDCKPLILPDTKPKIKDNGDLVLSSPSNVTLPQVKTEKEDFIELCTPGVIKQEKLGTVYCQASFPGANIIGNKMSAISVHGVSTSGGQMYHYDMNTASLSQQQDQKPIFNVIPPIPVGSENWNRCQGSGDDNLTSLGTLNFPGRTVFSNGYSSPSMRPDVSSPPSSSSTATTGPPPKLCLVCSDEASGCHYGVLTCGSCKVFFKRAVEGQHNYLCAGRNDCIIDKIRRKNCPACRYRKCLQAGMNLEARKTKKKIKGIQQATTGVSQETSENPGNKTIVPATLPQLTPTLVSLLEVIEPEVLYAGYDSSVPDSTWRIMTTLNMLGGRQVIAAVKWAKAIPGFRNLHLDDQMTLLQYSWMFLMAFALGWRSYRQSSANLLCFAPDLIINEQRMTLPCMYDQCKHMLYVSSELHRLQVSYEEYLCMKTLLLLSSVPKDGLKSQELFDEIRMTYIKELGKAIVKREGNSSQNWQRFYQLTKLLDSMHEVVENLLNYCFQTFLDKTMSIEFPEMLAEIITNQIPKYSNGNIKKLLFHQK
Chain of UniProt P16473 (P16473 whole entry, looked up): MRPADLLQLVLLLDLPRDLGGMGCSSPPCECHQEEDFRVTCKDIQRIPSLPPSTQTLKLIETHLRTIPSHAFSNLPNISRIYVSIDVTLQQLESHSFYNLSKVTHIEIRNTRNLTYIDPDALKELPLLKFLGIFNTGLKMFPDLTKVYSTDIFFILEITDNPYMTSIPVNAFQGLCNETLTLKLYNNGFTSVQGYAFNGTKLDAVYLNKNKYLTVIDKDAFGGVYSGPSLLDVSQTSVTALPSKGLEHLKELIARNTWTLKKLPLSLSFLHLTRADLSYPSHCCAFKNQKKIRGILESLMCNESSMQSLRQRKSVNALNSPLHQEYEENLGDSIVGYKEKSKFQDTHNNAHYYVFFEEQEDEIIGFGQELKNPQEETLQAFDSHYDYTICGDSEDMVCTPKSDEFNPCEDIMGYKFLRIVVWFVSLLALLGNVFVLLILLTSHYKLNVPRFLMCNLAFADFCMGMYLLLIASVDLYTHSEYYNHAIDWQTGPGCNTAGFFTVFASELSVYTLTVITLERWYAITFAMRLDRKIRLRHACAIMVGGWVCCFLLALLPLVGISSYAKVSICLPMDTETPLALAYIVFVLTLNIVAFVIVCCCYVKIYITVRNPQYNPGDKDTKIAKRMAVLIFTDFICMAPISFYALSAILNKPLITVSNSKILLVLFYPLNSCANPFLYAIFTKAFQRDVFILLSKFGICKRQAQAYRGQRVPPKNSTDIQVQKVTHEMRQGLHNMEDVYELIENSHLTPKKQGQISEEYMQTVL
Chain of UniProt P05177 (P05177 whole entry, looked up): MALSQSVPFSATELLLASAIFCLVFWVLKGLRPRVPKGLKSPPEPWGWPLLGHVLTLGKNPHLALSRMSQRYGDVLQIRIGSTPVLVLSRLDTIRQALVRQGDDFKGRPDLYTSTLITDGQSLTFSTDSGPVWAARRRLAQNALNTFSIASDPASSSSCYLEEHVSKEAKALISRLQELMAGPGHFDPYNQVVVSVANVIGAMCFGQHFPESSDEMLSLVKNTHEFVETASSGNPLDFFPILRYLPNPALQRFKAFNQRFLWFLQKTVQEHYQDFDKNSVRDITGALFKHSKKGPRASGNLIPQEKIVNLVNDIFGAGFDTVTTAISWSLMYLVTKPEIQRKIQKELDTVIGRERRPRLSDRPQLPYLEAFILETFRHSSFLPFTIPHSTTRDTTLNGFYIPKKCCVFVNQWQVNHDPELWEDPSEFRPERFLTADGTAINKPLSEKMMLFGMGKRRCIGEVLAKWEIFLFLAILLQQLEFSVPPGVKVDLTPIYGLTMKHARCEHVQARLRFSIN

CCCCCCCCCCCCCC=O
inactive: ratio activity, negative = inhibition [4] -1.51% [at 5.95 µM] | activation [5] -7.51% [at 8.36 µM] | activation [6] 0.369% [at 6.98 µM] | activation [7] 4.61% [at 8.39 µM] | activity change, negative = inhibition [8] 6.1% [at 8.39 µM]
active: Potency [3] 2.69 µM
inconclusive: Potency [1] 1.7 µM [rising, full curve, poor fit] | Potency [2] 2.4 µM [cytotoxic, partial curve] | Potency [9] 2.48 µM [inhibitor, partial curve]

CCCC=O
inactive: Potency [11] | Potency [4] | Potency [12]
inconclusive: Potency [10] 15 µM [falling, single point] | activity change, negative = inhibition [13] 8.37% | Potency [6] 0.0012 µM [falling, partial curve, poor fit]

Cc1ccccc1CCO
inactive: Potency [16]
inconclusive: ratio activity, negative = MMP loss [14] 6.88% | Potency [15] 1.23 µM [rising, partial curve, poor fit] | Potency [6] 61.6 µM [activator, single point]

CCCCCCCOC(C)=O
inconclusive: Potency [15] 4.36 µM [cytotoxic, full curve, poor fit] | activity change, negative = inhibition [13] 0.349%
inactive: Potency [14] | Potency [1] | Potency [4] | Potency [5] | Potency [6]

CCCCCCCC(=O)N(C)C
inactive: Potency [12] | Potency [6]
inconclusive: Potency [1] 77 µM [rising, partial curve, poor fit]

CCOC(=O)C1=NOC(c2ccccc2)(c2ccccc2)C1
inactive: Potency [3] | Potency [5] | Potency [13] | Potency [6]
inconclusive: Potency [14] 54.5 µM [rising, partial curve] | Potency [1] 68.6 µM [cytotoxic, single point] | ratio activity, negative = inhibition [12] 11.6% | Potency [7] 61.1 µM [activator, single point] | Potency [9] 20 µM [inhibitor, full curve]

O=C(Cl)c1c(Cl)cccc1Cl
inconclusive: activity change, negative = inhibition [11] 20.9% [at 78.9 µM] | Potency [17] 27.6 µM [rising, partial curve, poor fit] | ratio activity, negative = inhibition [4] 4.45% [at 81.1 µM] | activation [6] 17% | Potency [19] 40.4 µM [inhibitor, partial curve, poor fit]
active: Potency [18] 36 µM
inactive: Potency [1] | Potency [3] | Potency [12] | Potency [13] | Potency [7]

CC(CN=Cc1ccccc1O)N=Cc1ccccc1O (configuration not stated)
inactive: Potency [17]
inconclusive: activity change, negative = inhibition [11] 20.3% | Potency [2] 21.7 µM [cytotoxic, partial curve, poor fit] | Potency [5] 17.2 µM [rising, partial curve] | activation [6] -25.6% | Potency [7] 30.6 µM [inhibitor, partial curve] | Potency [19] 71 µM [inhibitor, partial curve, poor fit]

COCCCOc1cc(C[C@@H](C[C@H](N)[C@@H](O)C[C@H](C(=O)NCC(C)(C)C(N)=O)C(C)C)C(C)C)ccc1OC
inconclusive: Potency [1] 33.5 µM [cytotoxic, single point]
inactive: Potency [2] | Potency [4] | Potency [6] | Potency [7]

N#Cc1c(F)cccc1F
inconclusive: ratio activity, negative = MMP loss [14] 12.8% | ratio activity, negative = inhibition [4] -0.613% | activation [6] -0.935% | activity change, negative = inhibition [8] 0.826% | Potency [9] 71 µM [inhibitor, partial curve, poor fit]
inactive: Potency [10] | Potency [5] | Potency [7]

CCOC(=O)Cc1cccc2ccccc12
active: Potency [18] 20 µM | Potency [9] 15.9 µM
inconclusive: Potency [14] 34.4 µM [fluorescent, partial curve] | Potency [1] 68.6 µM [cytotoxic, single point] | Potency [2] 68.6 µM [cytotoxic, single point] | Potency [7] 30.6 µM [inhibitor, partial curve]
inactive: Potency [4] | Potency [6] | Potency [20] | Potency [8] | Potency [16]

CCC(C=O)CC
inconclusive: ratio activity, negative = MMP loss [14] 13.8% [at 95.3 µM] | activity change, negative = inhibition [11] -29.7% [at 78.9 µM] | Potency [7] 24.5 µM [activator] | Potency [9] 63.8 µM [inhibitor, partial curve]
inactive: Potency [17] | Potency [6]

Cc1cnccn1
inactive: Potency [6] | Potency [16] | Potency [9]

O=C(O)c1cccc(C(=O)O)n1
inactive: Potency [14] | Potency [4]
inconclusive: activation [10] 1.53% | activation [5] 18.6% | Potency [15] 0.0219 µM [rising, full curve, poor fit] | activity change, negative = inhibition [13] 27.9% | activation [6] 16.6% | Potency [16] 30.6 µM [cytotoxic, full curve, poor fit]
